This note sets out measurements from the RNAGym collection of RNA variant scans (doi:10.1093/nar/gkz1192).

B1: CPEB3 Ribozyme (parent)
chain: UAACAGGGGGCCACAGCAGAAGCGUUCACGUCGCAGCCCCUGUCAGAUUCUGGUGAAUCUGCGAAUUCUGCUGUAUAUCUC

Read counts are not given, so values of variants with three or more changes are uncertain.

In this series the parent is B1. Nature of the series: self-cleavage, relative activity (ratio to wild type); higher = more cleavage; in vitro, sequencing. The gist of the method:
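After error-prone PCR and barcoding, CPEB3 ribozyme mutant libraries were transcribed with T7 RNA polymerase at 37°C for 5 hours, then given 15 min with DNase I before an EDTA stop, and they cleaved during both steps. Reverse transcription with template switching preceded Illumina sequencing. Relative activity divides a variant's cleaved/total read fraction by the unmutated ribozyme's. At least 5 reads were required per variant, and three batches were averaged.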
Consider UACCAAGGGGCCACAGCAGAAGCGUUCACGUCGCAGCCCCCGUCAGAUACUGGUGAAUCUGCGAAUUCUGCUGUAUAUCUC [A3C G6A U41C U49A], for which the self-cleavage came out at 0.52.

With UUACAGGGGGCCACAGCAGAAGCGUUCACGUCGCAGCCCCUGCCAGAUUCUUGUGAAUCUGCGAAUUCUGCUGUAUAUCUC [A2U U43C G52U], the self-cleavage came to 0.68.

In the case of UUACAGGGGGCCACAGCAGAAGCGUUCACGUCGCAGCCCCUGUCAGAUUCCGGUGAGUCUGCGAAUUCUGCUGUAUAUCUC [A2U U51C A57G], the self-cleavage worked out at 0.78.

Consider UACCAGGGGGCCACGGCAGAAGCGUAAACGUCGCAGCCCCUGUCAGAUUCUGGUGAAUCUGCGUAUUCUGCUGUAUAUCUC [A3C A15G U26A C27A A64U], for which the self-cleavage came to 0.09.

With UACCGGGGGGCCACGGCGGAAGCGCUCACGUCGCAGCCCCUGUCAGAUUCCGGUGAAUCUGCGAGUUCUGCUGUAUAUCUC [A3C A5G A15G A18G U25C U51C A65G], the self-cleavage came out at 1.2.

For UACCAGGGGGCCACAGCAGAAGCGUUUGCGUCGCAGCCCCUGUCAGAUUCUGGUGAAUCUGCGAAUUCUGCUGUAUAUCUC [A3C C27U A28G], the self-cleavage came to 0.3.

For UUACAGGGGGCCACAGCAGAAGCGUUCACGUCGCAGCCCCAGUCAGGUUCUGGUGAAUCUGCGAAUUCUGCUGUAUACCUC [A2U U41A A47G U78C], the self-cleavage came out at 0.18.

UACCAGGGGGCCACAGCAGUAGUGUUCACGUCGCUGCCCCUGUCAGGUUCUGGUGAAUCUGCGAAUUCUGCAGUAUGUCUC [A3C A20U C23U A35U A47G U72A A77G]: the self-cleavage is 0.12.

UACCAGGGGGCCACAGCAGAAGCGUUCACGUCGCAGCCCCUGUCAGAUUCUGGUGGAUCUGCGAAUUCUGCUGUAUAUCCC [A3C A56G U80C]: the self-cleavage is 0.91.

As to UACCAGGGGGCCACGGCAGAAGCGUUCAUGUCGCAGCCCCUGCCAGUUUCUGGUGAAUCAGCGAAUUCUGCUGUAUAUCUC [A3C A15G C29U U43C A47U U60A], the self-cleavage worked out at 0.18.

On to UACCAGGGGGCCACAGCAGAGGCGUCCACGUCGCAGCCCCUGUCAGAUUCUGGUGAAUCUGCGAAUUCUGCUGUAUAUCUC [A3C A21G U26C], for which the self-cleavage was 0.61.

As for UACCCGGGGGCCACAGCAGAAGCGUACACGUCGCAGCCCCUGUCAGAUUCUGGUGAAUCUGCGAAUUCUGCUGUACAUCUC [A3C A5C U26A U76C], the self-cleavage came to 0.62.

For UUACAGGGGGCCACAGCAGAAGCGUUCACGUCGCAGCCCCUGUCAGAUUCUGGCGAAUCUGCGAACUCUGCUGUAUAUCCC [A2U U54C U66C U80C], the self-cleavage stood at 0.28.

As for UACCAGGGGGCCACGGCAGAAGCGUUCACGUCGCAGCUCCUGUCAGAUUCUGGUGAAUCAGCGCAUUCUGCUGUAUAUCUC [A3C A15G C38U U60A A64C], the self-cleavage is 0.19.

Consider UACCAGGGGGCCACAGCAGGAGCGUUCACGUCGCAGCCCCUGUCAGAUUCCGGUGAAUCUGCGAAUUCUGCUGUAUAUCUC [A3C A20G U51C], for which the self-cleavage is 1.08.

For UACCAGGGGGCCACAGCAGACGCGUUCACGACGCAGCCCCUGUCAGAUUCUGGUGAAUCUGCGAAUUCUGCUGUAUAUCCC [A3C A21C U31A U80C], the self-cleavage was determined as 0.45.

With UACCAGGGGGCCACAGCAGAAGCGUUCUCGUCGCAGCCCCUGUCAGAUUCUGGUGAAUCUGGGAAUUCUGCUGUAUAUCCC [A3C A28U C62G U80C], the self-cleavage amounted to 0.17.

On to UACCAGGGGGCCACGGCAGAAGCGCUCACGUCGCUGCCCCUGUCAGAUUCUGGUGAAUCUGCGAAUUCUGCUGUAUAUCUC [A3C A15G U25C A35U], for which the self-cleavage amounted to 0.39.

With UACCAGGGGGCCACAGCAGAGGCGUUCACGUCGCAGCCCCCGUCAGAUUCUGGUGAAUCUGCGAAUCCUGCUGUAUAUCUC [A3C A21G U41C U67C], the self-cleavage was determined as 0.58.

Take UACCAGGGGGCCACAGCGGAAGCGUUCACGUCGCAGCCCCUGUCAGAUUCUGGUGAAUCGGCGAAUACUGCUGUAUAUCUC [A3C A18G U60G U67A]: the self-cleavage was determined as 0.47.

As for UACCAGGGGGCCACAGCAGAAGCGUUCACGUCGCAGCCCCUGUCAGAUUCUGGUGAUUCUGCGAAUUCAGCUGUAUAUCUC [A3C A57U U69A], the self-cleavage was found to be 0.4.

Consider UACCUGGGGGCCACAGCAGAAGCGUUCACGUCGCAGCCCCUGUCAGAUUCUGGUGGAUCUGCGAAUUCUGCUGUAUAUCUC [A3C A5U A56G], for which the self-cleavage was determined as 0.76.

Take UACCAGGGGGGCACAGCAGAAGCGUUCACGUAGCAGCCCCAGUCAGAUUCUGGUGAAUCUGCGAAUUCUGCUGUAUAUCUC [A3C C11G C32A U41A]: the self-cleavage stood at 0.33.

UACCAGGGGGCCACGGCAGAAGCGUUCACGUCGCAGCCCCUGUCAGGUUCUGGUGAAUCAGCGAAUUCUGCUGUAUAUCUC [A3C A15G A47G U60A]: the self-cleavage worked out at 0.49.

Regarding UACCAGGGGGCCACAGCAGAAGCGUUCACGUCGCAGCCCCUGUCAGAUUCUGGUGGAUCUGCUAAUUCUGCUGUAUGUCUC [A3C A56G G63U A77G], the self-cleavage is 1.15.

Consider UACCAGGGGGGCACAGCAGAAGCGUUCACGUCGCAGCCCCAGUCGGAUUCUGGUGGAUCUGCGAAUUCUGCUGUAUAUCUC [A3C C11G U41A A45G A56G], for which the self-cleavage is 0.11.

For UACCAGGGGGCCUCAGCAGAAGCGUUCACGUCGCUGCCCCUGUCAGAUUCUGGUGAAUCUGCGAAUUCUGCUGCAUAUCUC [A3C A13U A35U U74C], the self-cleavage amounted to 1.24.

Regarding UACCAGGGGGCCGCAGCAGAAGCGUUCACGUUGCAGCCCCUGUCAGAUUCUGGCGAAUCUGCGAAUUCUGCUGUAUAUCUC [A3C A13G C32U U54C], the self-cleavage turned out to be 0.19.

As for UACCUGGGGGCCACAGCAGAAGCGUCCACGUCGCAGCCCCUGUCAGAUUCUGGUGAAUCUGCGAAUUCUGCUGUAUAUCUC [A3C A5U U26C], the self-cleavage was 0.62.

Take UACCAGGGGGCCACAGCAGAGGCGUUCAUGUCGCAGCCCCUGUCAGAUUCUGGUGAGUCUGCGAAUUCUGCCGAAUAUCUC [A3C A21G C29U A57G U72C U74A]: the self-cleavage was 0.28.

Take UUACAGGGGGCCACAGCAGAAGCGUUCACGUCGCAGCCCCCCUCAGAUUCAGGUGAAUCUGCGGAUUCUGCUGUAUAUCUC [A2U U41C G42C U51A A64G]: the self-cleavage stood at 0.16.

In the case of UACCAGGGGGCCACAGCAGCAGCGUUCACGUCGCAGCCCCUGUCUGAUUCUGGUGAAUCUGCGAAUUCUGCCGUAUGUCUC [A3C A20C A45U U72C A77G], the self-cleavage came out at 0.11.

Take UUACAGGGGGCCACAGCAGAAGCGUUCACGUCGCAGCCCCAGUCAGAUCCUGGUGAAUCUGCGAAAUCUGCUGUAGAUCUC [A2U U41A U49C U66A U76G]: the self-cleavage turned out to be 0.13.

For the variant UUACAGGGGGCCACAGCAGAAGCGUUCACGUCGCAGCCCCUGACAGAUUCUGGUGAAUCUGCGAACUCAGCUGUAUAUCUC [A2U U43A U66C U69A], the self-cleavage is 0.21.
